The source of these data is US20260209357A1 (CSL INNOVATION, published 2026).

The assay concerns the target T1, soluble recombinant human FcRn/β2m (human, UniProt P55899 partial chain; P61769 partial chain).
T1 construct: About 42 kDa; also called HuFcRn/b2m; huFcRn/b2m
As to the kind of experiment: SPR, ligand on surface, soluble HuFcRn/b2m as analyte; pH not printed with the table (paragraph 351 speaks of pH 6.0). Background: In SPR one partner is held on a chip, and binding of the other changes the refractive index at the surface.

T1 sequence (P55899 24-297 limits assumed, chain 1 of 2): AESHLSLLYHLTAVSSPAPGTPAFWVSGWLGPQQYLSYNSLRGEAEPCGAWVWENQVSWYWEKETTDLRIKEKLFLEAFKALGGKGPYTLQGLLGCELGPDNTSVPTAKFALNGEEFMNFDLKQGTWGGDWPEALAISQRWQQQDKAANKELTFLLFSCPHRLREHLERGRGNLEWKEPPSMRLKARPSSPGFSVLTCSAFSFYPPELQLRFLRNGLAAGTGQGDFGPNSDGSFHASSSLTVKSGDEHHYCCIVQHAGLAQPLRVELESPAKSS
T1 sequence (P61769 21-119 limits assumed, chain 2 of 2, further chain): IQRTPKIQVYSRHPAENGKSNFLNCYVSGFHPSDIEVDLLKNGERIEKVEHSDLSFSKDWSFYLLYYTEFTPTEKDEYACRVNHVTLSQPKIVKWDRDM

B1: G1FcYPY-HSA[H464Q_T422W_H535F] (Fc fusion)
chain: EPKSCDKTHTCPPCPAPELLGGPSVFLFPPKPKDTLYISRTPEVTCVVVDVSHEDPEVKFNWYVDGVEVHNAKTKPREEQYNSTYRVVSVLTPLHQDWLNGKEYKCKVSNKALPAPIEKTISKAKGQPREPQVYTLPPSRDELTKNQVSLTCLVKGFYPSDIAVEWESNGQPENNYKTTPPVLDSDGSFFLYSKLTVDKSRWQQGNVFSCSVMHEALHYHYTQKSLSLSPGKDAHKSEVAHRFKDLGEENFKALVLIAFAQYLQQCPFEDHVKLVNEVTEFAKTCVADESAENCDKSLHTLFGDKLCTVATLRETYGEMADCCAKQEPERNECFLQHKDDNPNLPRLVRPEVDVMCTAFHDNEETFLKKYLYEIARRHPYFYAPELLFFAKRYKAAFTECCQAADKAACLLPKLDELR[left out - about 200 residues]NLIKQNCELFEQLGEYKFQNALLVRYTKKVPQVSTPWLVEVSRNLGKVGSKCCKHPEAKRMPCAEDYLSVVLNQLCVLQEKTPVSDRVTKCCTESLVNRRPCFSALEVDETYVPKEFNAETFTFHADICTLSEKERQIKKQTALVELVKFKPKATKEQLKAVMDDFAAFVEKCCKADDKETCFAEEGKKLVAASQAALGL
Consider B1, for which the Kd is 16.1 nM, the dissociation rate constant (koff) worked out at 0.00295 s⁻¹ and the on-rate (kon) came out at 184000 M⁻¹ s⁻¹.

The Kd is a measure of binding affinity in units of concentration. One may read the koff as the rate constant with which the complex falls apart. In general, kon refers to the rate constant with which the complex forms.
